This is an account of results in PubChem BioAssay AID1159614 (National Center for Advancing Translational Sciences (NCATS), 2016).

Structures are written as SMILES. About 65 (0.1%) of roughly 45,000 compounds were called active. Calls follow the shape of the dose curve; as a rule, active = well fitted activation curve with a large enough effect; inconclusive = small, poorly fitted or top-dose-only effect; inactive = no such curve, though single readings can be large or run the other way. The list shows a part of the results.

UniProt P54803, sequence (P54803 whole entry, looked up): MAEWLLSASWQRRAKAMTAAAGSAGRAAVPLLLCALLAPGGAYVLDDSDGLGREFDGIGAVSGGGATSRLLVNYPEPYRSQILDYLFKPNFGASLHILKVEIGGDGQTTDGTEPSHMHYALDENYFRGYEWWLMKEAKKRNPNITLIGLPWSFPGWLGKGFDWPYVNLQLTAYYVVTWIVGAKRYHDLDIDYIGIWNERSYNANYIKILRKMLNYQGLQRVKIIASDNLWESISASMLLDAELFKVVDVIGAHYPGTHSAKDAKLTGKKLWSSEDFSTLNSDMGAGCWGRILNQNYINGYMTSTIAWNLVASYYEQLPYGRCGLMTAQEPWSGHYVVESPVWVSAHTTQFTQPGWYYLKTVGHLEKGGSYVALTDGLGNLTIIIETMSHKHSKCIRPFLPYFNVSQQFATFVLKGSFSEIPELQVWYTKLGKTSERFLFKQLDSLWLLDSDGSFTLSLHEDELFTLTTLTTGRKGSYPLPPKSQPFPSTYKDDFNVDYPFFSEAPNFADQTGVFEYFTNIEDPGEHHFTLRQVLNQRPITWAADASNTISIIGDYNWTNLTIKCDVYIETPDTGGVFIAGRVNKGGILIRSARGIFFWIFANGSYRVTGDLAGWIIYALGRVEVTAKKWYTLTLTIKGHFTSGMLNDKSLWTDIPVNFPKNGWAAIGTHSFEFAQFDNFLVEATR

The test concerns the target Galactocerebrosidase (Homo sapiens) (UniProt P54803). Kind of test: A Novel Cell-Based Assay to Identify Small Molecules for B -Galactocerebrosidase. Also: 0% is about no effect; nearly all actives have a fitted effect of over 65% in size. Particulars: 145M-Twi-hGALC-G270D cells (Twitcher mouse brain line with human GALC G270D), HMU-beta-Gal fluorescence, 48 h; activation: at the top concentration. In outline:
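Mutant human GALC (G270D), stably expressed in a Twitcher mouse brain cell line lacking endogenous GALC, is measured in live-treated cells via 6-hexadecanoylamino-4-methylumbelliferyl-β-galactoside hydrolysis (0.1 mM final, pH 5.2) with fluorescent detection.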
Regarding `C[C@@H]1O[C@@H](O[C@@H]2C=C3CC[C@@H]4[C@H](CC[C@]5(C)[C@@H](c6ccc(=O)oc6)CC[C@]45O)[C@@]3(C)CC2)[C@H](O)[C@H](O)[C@H]1O`, the “activation” value is inactive: -24.8%. As to `C#CCN(C)[C@H](C)Cc1ccccc1`, the “activation” value was inactive: -12.2%. The result for `O=C(Cn1c(=O)oc2cc(S(=O)(=O)N3CCCCCC3)ccc21)NCc1ccccc1Cl` reads inactive: -32.5%; that for `O=C(Nc1ccc(Br)cc1)c1cc(Br)cc(Br)c1O`, inactive: 3.9%; that for `Cc1cc(C)cc(-n2c(/C=C/c3cccc(F)c3)nc3ccccc3c2=O)c1`, inactive: -16.6%.

As for `COc1ccc(NC(=O)CN2C(=O)C(C)N=C(c3ccccc3F)c3cc(Cl)ccc32)c(OC)c1` (configuration not stated), the “activation” value was inactive: -10.6%. The result for `CC(=O)N1CCc2cc(S(=O)(=O)N3CCN(c4ccc(C)cc4)C(C)C3)ccc21` (configuration not stated) reads inactive: -35%. The result for `CC1COC2(c3ccccc3Cl)c3cc(Cl)ccc3NC(=O)CN12` (configuration not stated) reads inactive: -11.3%; that for `O=C(Nc1ccccc1-c1ccc(Cl)cc1)c1cccnc1Cl`, inactive: -15.6% [at 114 µM].

Consider `CCCCCCCCCCCC[N+](C)(C)CCOc1ccccc1`, for which the “activation” value is inactive: -13.3%. The result for `Cc1nnc(NC(=O)c2cccn(Cc3ccc(Cl)cc3)c2=O)s1` reads inactive: -10.8%; that for `CC(C)NCC(O)c1ccccc1Cl` (configuration not stated), inactive: -19.4%; that for `CCC(C(N)=O)N1CCCC1=O` (configuration not stated), inactive: -19.3%. The result for `COc1ccc2c(C(=O)c3ccc(Cl)cc3)c(C)n(CC(=O)O)c2c1` reads inactive: -21.4%. To `C=CCOC(Cn1ccnc1)c1ccc(Cl)cc1Cl` (configuration not stated) belongs inactive: -13.6%. Take `CC(=O)Nc1cc([As](=O)(O)O)ccc1O`: the “activation” value was inactive: -18.7%. The result for `COc1ccc(OC)c(NC(=O)Cn2cc(C(=O)c3ccccc3F)c3ccccc32)c1` reads inactive: -7.83%. In the case of `CCN(CCO)CCn1c(Cc2ccccc2)nc2c1c(=O)n(C)c(=O)n2C`, the “activation” value is inactive: -16.1%. Consider `ClC1=C(Cl)C2(Cl)C(CBr)CC1(Cl)C2(Cl)Cl` (configuration not stated), for which the “activation” value is inactive: -16.2%.

`Cc1ccc(-n2c(/C=C/c3ccc(Br)s3)nc3ccccc3c2=O)cc1C`: the “activation” value is inactive: -5.46%. Take `CC(=O)[O][Hg][c]1ccccc1`: the “activation” value is inactive: -21.5%. The result for `FC(F)(F)c1cccc(C2=CCN(CCc3ccc4ccccc4c3)CC2)c1` reads inactive: -19.1%; that for `C=CCN1CC[C@]23CCCC[C@H]2[C@H]1Cc1ccc(O)cc13`, inactive: -21%.

For the compound `CCOP(=S)(OCC)O/N=C(\C#N)c1ccccc1`, the “activation” value was inactive: -16.8%. The result for `Cc1ccc(NC(=O)CN2C(=O)CN=C(c3ccccc3)c3ccccc32)c(C)c1` reads inactive: -27.7%. To `O=C(c1ccc2c(c1)N(Cc1ccc(F)cc1Cl)C(=O)c1ccccc1S2)N1CCC2(CC1)OCCO2` belongs inactive: -8.96%; to `CC(=O)Nc1nnc(S(N)(=O)=O)s1`, inactive: -11.1%. The result for `Fc1ccc(N2CCN(c3ncnc4c3nc3n4CCCCC3)CC2)cc1` reads inactive: 4.2%; that for `C=CC(=O)NCNC(=O)C=C`, inactive: -10.6% [at 114 µM]. For the compound `CCCCc1nc2ccccc2c(=O)n1-c1cccc(OC)c1`, the “activation” value was inactive: -14.2%.

With `COc1nn(CSP(=S)(OC)OC)c(=O)s1`, the “activation” value was inactive: -7.99% [at 114 µM].

With `CC(Cc1ccccc1)NCCn1cnc2c1c(=O)n(C)c(=O)n2C` (configuration not stated), the “activation” value was inactive: -10.5% [at 114 µM]. Turning to `COc1cc(/C=C/c2nc3ccccc3c(=O)n2-c2ccc(Br)c(C)c2)ccc1O`, the “activation” value is inactive: -19.9%. The result for `Nc1c(C(=O)Nc2ccc(OC(F)(F)F)cc2)sc2nc3c(cc12)N1CCC3CC1` reads inactive: -27%; that for `N[C@@H]1C[C@H]1c1ccccc1`, inactive: -10.6%; that for `CC(C)NCC(O)c1ccc([N+](=O)[O-])cc1` (configuration not stated), inactive: -1.06%.

As to `COc1ccc(-c2cc3nc(C)c(CCC(=O)N4CCN(c5cc(C)ccc5C)CC4)c(C)n3n2)c(OC)c1`, the “activation” value was inactive: -32.4%. To `CCC1(c2ccccc2)C(=O)N(COC)C(=O)N(COC)C1=O` belongs inactive: -14.2%; to `O=C(Nc1ccc2c(c1)OCCO2)c1cccn(Cc2cccc([N+](=O)[O-])c2)c1=O`, inactive: -19.4%; to `O=C(CCl)c1ccc(Cl)cc1Cl`, inactive: -16.9%. The result for `C#C[C@]1(O)CC[C@H]2[C@@H]3CCC4=CC(=O)CCC4=C3C=C[C@@]21CC` reads inactive: -16.1%. The result for `CCN(CC)C(=O)N[C@@H]1C=C2c3cccc4[nH]cc(c34)C[C@@H]2N(C)C1` reads inactive: -5.72%; that for `N#Cc1cc([N+](=O)[O-])ccc1NC(=O)c1cccn(Cc2cccc(F)c2)c1=O`, inactive: -10.3%. For `NC1=NC(=O)C(c2ccccc2)O1` (configuration not stated), the “activation” value was inactive: -7.19%. To `CCOC(=O)C1(c2ccccc2)CCN(CCC(C#N)(c2ccccc2)c2ccccc2)CC1` belongs inactive: -22%; to `CN(C)CCc1ccc(O)cc1`, inactive: -9.39%; to `CN1CCN(c2csc3ccc(F)cc3c2=O)CC1`, inactive: -2.47%. To `CC(=O)[C@H]1CC[C@H]2[C@@H]3CC[C@H]4C[C@](C)(O)CC[C@]4(C)[C@H]3CC[C@]12C` belongs inactive: -12.7%; to `CSc1ccc(C(c2c(O)c3ccccc3oc2=O)c2c(C)n(C)n(-c3ccccc3)c2=O)cc1` (configuration not stated), inactive: -1.73%; to `CCOC(=O)c1c(C)[nH]c(C)c1S(=O)(=O)NCC(=O)N1CCN(c2cc(Cl)ccc2C)CC1`, inactive: -30.9%. To `ClCCCN1CCN(c2cccc(Cl)c2)CC1` belongs inactive: -14.8%; to `N#Cc1cc2c(nc1SCC(=O)Nc1cccc(F)c1)C1CCN2CC1`, inactive: -3.97%.

Turning to `CCOc1ccc(-n2c(/C=C/c3ccccc3)nc3ccccc3c2=O)cc1`, the “activation” value was inactive: -10.3%.

As to `O=[N+]([O-])c1cc([N+](=O)[O-])c2ccccc2c1`, the “activation” value was inactive: -8.96% [at 114 µM]. On to `CN1CC[C@]23c4c5ccc(O)c4O[C@H]2[C@@H](O)C=C[C@H]3[C@H]1C5`, for which the “activation” value was inactive: -4.87% [at 114 µM]. To `CCCN(CCC)CCc1c[nH]c2ccccc12` belongs inactive: -10.5% [at 114 µM]; to `CC(C)=C[C@@H]1[C@@H](C(=O)OCc2coc(Cc3ccccc3)c2)C1(C)C`, inactive: -11%; to `CCC(CC)(CNC(=O)CCCO)c1cccc(OC)c1`, inactive: -6.51%.

For the compound `O=C1OC(c2ccc(O)c(S(=O)(=O)O)c2)(c2ccc(O)c(S(=O)(=O)O)c2)c2c(Br)c(Br)c(Br)c(Br)c21`, the “activation” value is inactive: -14.2%. For the compound `NCC(CC(=O)O)c1ccc(Cl)cc1` (configuration not stated), the activation is inactive: -14.7% [at 0.46 µM]. As to `CCOC(=O)CC(SP(=S)(OC)OC)C(=O)OCC` (configuration not stated), the activation entry was “inactive”.

For the compound `CC1(C)OC[C@@H](COC(=O)CCc2ccc(OC[C@@H](O)CNCCNC(=O)N3CCOCC3)cc2)O1`, the “activation” value is inactive: -13.5%. The result for `O=C(Nc1ccc2c(c1)OCO2)c1cccn(Cc2ccc(F)cc2)c1=O` reads inactive: -19.3%. To `Cn1c(=O)n(C)c2cc(CNCCc3ccccc3)ccc21` belongs inactive: -15.4%; to `Cc1ccccc1Cn1cccc(C(=O)Nc2cc(Cl)ccc2C#N)c1=O`, inactive: -17.2%; to `CN(C)[C@@H]1C(=O)C(C(N)=O)=C(O)[C@@]2(O)C(=O)C3=C(O)c4c(O)cccc4[C@@](C)(O)[C@H]3C[C@@H]12`, inactive: -11%.

As for `NCc1cccnc1`, the “activation” value is inactive: -12.4%. Regarding `Cc1cc(NC(=O)c2cccn(Cc3cccc([N+](=O)[O-])c3)c2=O)no1`, the “activation” value was inactive: -21.8%. To `CCOc1ccc2nc(NC(=O)c3cccn(Cc4ccccc4C)c3=O)sc2c1` belongs inactive: -14%; to `CCC(=O)N1CC(=O)Nc2ccc(C)cc2C1c1ccc(F)cc1` (configuration not stated), inactive: -7.78%. The result for `CC(NC(C)(C)C)C(=O)c1cccc(Cl)c1` (configuration not stated) reads inactive: -14.6%. To `CCc1ccc(OCC(=O)N2CCN(CCc3ccccn3)CC2)cc1` belongs inactive: -4.58%. As to `COc1ccc(-c2nc(CN3C(=O)CN=C(c4ccccc4)c4ccccc43)c(C)o2)cc1OC`, the “activation” value is inactive: -8.57%. As to `O=C1CN=C(c2ccccc2)c2cc(Cl)ccc2N1Cc1ccc(Cl)cc1`, the “activation” value is inactive: -18.6%. To `Cn1c(CCCC(=O)O)nc2cc(N(CCCl)CCCl)ccc21` belongs inactive: -6.78%; to `COc1ccccc1-n1c(/C=C/c2ccccc2)nc2ccccc2c1=O`, inactive: -6.2%. The result for `COc1ccc(-c2nn3c(=O)cc(CN4CCN(C(=O)COc5ccc(F)cc5)CC4)nc3s2)cc1` reads inactive: 1.37%; that for `O=C1CC[C@@]2(O)[C@H]3Cc4ccc(O)c5c4[C@@]2(CCN3CC2CC2)[C@H]1O5`, inactive: -20.4%. Turning to `NC(=O)c1cc([N+](=O)[O-])cc([N+](=O)[O-])c1`, the “activation” value is inactive: -14%. The result for `CN1CCN(C(=O)O[C@H]2c3nccnc3C(=O)N2c2ccc(Cl)cn2)CC1` reads inactive: 8.67%; that for `COC1CC(=C(c2cccs2)c2cccs2)C[N+](C)(C)C1` (configuration not stated), inactive: -10.6%; that for `Cc1oc(-c2ccc(Cl)cc2)nc1CN1C(=O)CN=C(c2ccccc2)c2cc(Cl)ccc21`, inactive: 0.931%. To `CC(=O)OC1(c2ccccc2)CCN(CCc2ccccc2)CC1` belongs inactive: -3.38% [at 129 µM]; to `CCN(CC)CCc1c[nH]c2ccccc12`, inactive: -5.07% [at 129 µM]. The result for `COC(=O)[C@@H](N)CCCN/C(N)=N/[N+](=O)[O-]` reads inactive: -8.86%; that for `O=c1c(C2CC(c3ccc(-c4ccc(Br)cc4)cc3)Cc3ccccc32)c(O)sc2ccccc12` (configuration not stated), inactive: -9.52%; that for `COc1ccc(Cl)cc1NC(=O)c1sc2nc3c(cc2c1N)N1CCC3CC1`, inactive: -11.7%. On to `CN[C@@H](C)[C@H](O)c1ccccc1`, for which the “activation” value was inactive: -15.7%. The result for `CCc1ccc(-n2nc(C)c3c2NC(=O)CSC3c2ccc(OC)cc2OC)cc1` (configuration not stated) reads inactive: -11%; that for `CCC(C(=O)Nc1ccccc1F)N1C(=O)CN=C(c2ccccc2)c2ccccc21` (configuration not stated), inactive: -2.17%; that for `CC[C@]1(O)CC[C@H]2[C@@H]3CCC4=CCCC[C@@H]4[C@H]3CC[C@@]21C`, inactive: -18.3%. Consider `Nc1ccc(Cl)cc1`, for which the “activation” value is inactive: -10.6% [at 114 µM]. The result for `COc1c2c(cc3c1OCO3)CCN(C)C2` reads inactive: 1.95%. To `CCOc1ccc(CCNC(=O)c2cc3c(-c4cccc(OC)c4)nn(C)c3s2)cc1OCC` belongs inactive: -14.9%; to `CCOC(=O)c1ccc(NC(=O)c2cccn(Cc3ccccc3F)c2=O)cc1`, inactive: -14.1%.

Consider `ClCc1cccc(Cl)c1`, for which the “activation” value is inactive: -10.9%. To `O=S(=O)(O)C(F)(F)C(F)(F)C(F)(F)C(F)(F)C(F)(F)C(F)(F)C(F)(F)C(F)(F)F` belongs inactive: -20.6% [at 114 µM]; to `N#Cc1ccccc1NC(=O)c1cccn(Cc2ccccc2)c1=O`, inactive: -16%; to `Nc1ccc(Cl)cc1C(=O)c1ccccc1F`, inactive: -13.5%. As for `N#Cc1nn(-c2c(Cl)cc(C(F)(F)F)cc2Cl)c(N)c1S(=O)C(F)(F)F` (configuration not stated), the “activation” value was inactive: -9.04%. In the case of `NCC(O)c1ccc(O)cc1` (configuration not stated), the “activation” value is inactive: -11.6%. Regarding `O=C(Cn1cc(C(=O)c2ccccc2)c2ccccc21)Nc1ccc(Br)cc1`, the “activation” value is inactive: -10.6%. The result for `COc1ccc(-c2nc(CN3C(=O)CN=C(c4ccccc4Cl)c4cc(Cl)ccc43)c(C)o2)cc1OC` reads inactive: -11.3%; that for `CCCc1ccc(OCC(=O)Nc2ccc(Cl)cc2C(=O)c2ccccc2)cc1`, inactive: -3.08%. To `CCc1ccc(-c2nc(CSCC(=O)N3CCN(c4ccc(F)cc4)CC3)c(C)o2)cc1` belongs inactive: -30.8%; to `CN(C)CCc1c[nH]c2cccc(O)c12`, inactive: -7.52% [at 114 µM]; to `Cc1cccc(CN2C(=O)CN=C(c3ccccc3)c3cc(Cl)ccc32)c1`, inactive: -17.3%.
